Out of some 330,000 compounds screened, about 4,200 (1.3%) were called active. Inconclusive means that the source gave no clear call. Such entries were picked first, then a sample of the others. Calls come from the whole dose curve; as a rule, active = well fitted activation curve with a large enough effect; inconclusive = small, poorly fitted or top-dose-only effect; inactive = no such curve, though single readings can be large or run the other way. A potency beside an inconclusive call is a rough fit, not a confirmed value.
Assay: qHTS screen for small molecules that induce genotoxicity in human embryonic kidney (HEK293T) cells expressing luciferase-tagged ELG1; note: nearly all actives have a fitted effect of over 60% in size
Details: HEK293T ELG1-luciferase reporter, luminescence, 16 h; series mostly up to 46 µM
How it was run: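 HEK293T cells expressing luciferase-tagged ELG1 were exposed to compound or DMSO vehicle for 16 hr at 37 °C and 5% CO2. Luciferase activity was then measured with ONE-Glo after 30 min at room temperature.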
Potency is the fitted concentration of half-maximal effect; tags give direction and shape of the fitted curve.

Row | SMILES | Potency
1 | CC(=O)c1c(C)[nH]c(C(=O)NC2=NCCS2)c1C | inconclusive: 18.4 µM [activator, single point]
2 | c1csc(-c2noc(CN3CCOCC3)n2)c1 | inactive
3 | COc1cccc(C(=O)c2cc3cc(Cl)ccc3[nH]2)c1 | inconclusive: 3.55 µM [activator, partial curve, poor fit]
4 | CCOc1ccc(OCc2cccc(C(=O)Nc3ccc(CN4CCCCC4)cc3)c2)cc1 | active: 1.3 µM
5 | Nc1ccc(-c2nc3ccc(N)cc3o2)cc1 | active: 20.6 µM
6 | O=C(CNc1ccccc1OC(F)F)N1CCc2ccccc21 | inconclusive: 11.6 µM [activator, partial curve]
7 | CC(=O)c1cccc(NC(=O)/C(=C/c2ccncc2)NC(=O)c2ccccc2)c1 | inactive
8 | CCC(=O)[C@@]1(C)[C@H](C)C[C@H]2[C@@H]3CCC4=CC(=O)C=C[C@]4(C)[C@H]3[C@@H](O)C[C@@]21C | inactive
9 | C=CCOc1ccc(/C=C(\C#N)C(=O)Nc2ccccn2)cc1OC | inactive
10 | COc1cccc(NC(=O)n2ncc3c(C)cccc32)c1 | active: 1.64 µM
11 | CN(C)C(=O)c1ccc(-c2cc3onc(-c4ccccc4)c3c(=O)n2C)cc1 | inconclusive: 2.31 µM [activator, full curve, poor fit]
12 | CCOc1ccc(NC(=O)CCC(=O)N/N=C2\CCCc3ccccc32)cc1 | inconclusive: 29.1 µM [activator, single point]
13 | COc1ccc(/C(C#N)=C/c2cccnc2)cc1 | inconclusive: 23.1 µM [activator, partial curve, poor fit]
14 | Cc1c(CC(=O)N2CCN(C(=O)C3COc4ccccc4O3)CC2)c(=O)oc2cc(O)ccc12 (stereo not given) | inactive
15 | Clc1cccc(-c2nc(-c3ccccn3)no2)c1 | inconclusive: 0.411 µM [activator, partial curve, poor fit]
16 | O=C(CNC(=S)NC(=O)c1cccs1)c1ccccc1 | inconclusive: 18.4 µM [activator, partial curve, poor fit]
17 | COc1ccc(-c2cc(C(F)(F)F)nc(S(C)(=O)=O)n2)cc1 | inconclusive: 23.1 µM [activator, single point]
18 | Cc1cccnc1NC(=S)NCCc1ccccc1 | inconclusive: 16.4 µM [activator, partial curve, poor fit]
19 | Cc1ccc(NC(=O)Nc2cnccn2)cc1 | inconclusive: 8.2 µM [activator, partial curve]
20 | C(=N\Nc1nc2ccccc2[nH]1)/C1CCCCC1 | inconclusive: 14.6 µM [activator, partial curve]
